About 50,000 (12%) of roughly 420,000 compounds were called active. Inconclusive results, whose numbers are uncertain, are shown with a selection of clear calls. Calls come from the whole dose curve; as a rule, active = well fitted inhibition curve with a large enough effect; inconclusive = small, poorly fitted or top-dose-only effect; inactive = flat fitted curve, though single readings scatter. Potencies of inconclusive entries are left out as doubtful fits.
Assay: qHTS for Inhibitors of human tyrosyl-DNA phosphodiesterase 1 (TDP1): qHTS in cells in presence of CPT; note: nearly all actives have a fitted effect of over 55% in size
Settings: chicken DT40 Tdp1-/-;hTDP1 cells + 20 nM CPT, ATP luminescence, 48 h; activity change, negative = growth inhibition: at 46.2 µM (top of the series) unless noted
How it was run: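 Chicken DT40 Tdp1-/- cells complemented with human TDP1, 400 cells/well, exposed to compounds plus 20 nM camptothecin for at least 48 h at 37 C; viability read as ATP content by CellTiter-Glo luminescence.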
% is set by controls: 0 for no effect and ±100 for the full control effect; potency is the fitted concentration of half-maximal effect; tags give direction and shape of the fitted curve.

SMILES	activity change, negative = growth inhibition	Potency
O=C(NCc1cccs1)c1cnc(Cl)c(Cl)c1	inactive: -27.9%	–
COCCCn1c(=O)c2ccccc2n(CC(=O)NCCC2=CCCCC2)c1=O	inactive: 2.41%	–
COc1ccc(NC(=O)CC(CC(=O)O)c2cc(OC)c(OC)c(OC)c2)cc1 (stereo not given)	inactive: 7.43%	–
Cc1ccc(C)c(C(=O)Nc2nc3ccccc3[nH]2)c1	–	inconclusive [inhibitor, single point]
CC(C)Nc1ncnc2ccc(Br)cc12	–	active: 4.11 µM
CCOc1ccccc1C(=O)Nc1nnc(SCC(=O)N2CCOCC2)s1	–	inconclusive [inhibitor, single point]
O=C(NCC(c1ccco1)N1CCc2ccccc2C1)c1ccccc1Cl (stereo not given)	–	inconclusive [inhibitor, single point]
CCOC(=O)[C@H]1Nc2ccc(Cl)cc2[C@@H]2[C@H]1C1CC(c3ccccc31)N2C(=O)OCc1ccccc1 (stereo not given in full)	–	inconclusive [inhibitor, single point]
CCCC(=O)N1CCN(c2ccc([N+](=O)[O-])cc2Cl)CC1	–	inconclusive [inhibitor, single point]
O=S1(=O)N=C(Nc2ccc(S(=O)(=O)N3CCCCC3)cc2)c2ccccc21	–	inconclusive [inhibitor, single point]
CSc1nc2ccccc2cc1/C=C(\C#N)c1ccccc1	–	inconclusive [inhibitor, single point]
COc1ccc(CCN2CC(C(=O)Nc3nnc(Cc4ccccc4)s3)CC2=O)cc1OC (stereo not given)	inactive: -0.0962%	–
COc1ccc2[nH]cc(CCNc3nc(-c4cccc(NS(C)(=O)=O)c4)nc4ccccc34)c2c1	–	inconclusive [inhibitor, single point]
COc1cc(C(=O)Nc2sc3c(c2C(=O)NCc2ccco2)CCCC3)cc(OC)c1OC	–	inconclusive [inhibitor, single point]
Cc1c(C(C)NC(=O)c2ccc3nc(Cc4ccccc4F)oc3c2)cnn1C (stereo not given)	–	inconclusive [inhibitor, single point]
N#CC1=C(N)SC(N)=C(C#N)C1CCc1ccccc1	–	inconclusive [inhibitor, single point]
C[C@H](CO)N1C[C@H](C)[C@@H](CN(C)C(=O)Nc2ccccc2)Oc2ccc(NC(=O)Cn3cnnn3)cc2C1=O	inactive: 11.9%	–
Cc1ccc2cccc(NC(=S)NC(=O)c3c(Br)cnn3C)c2n1	inactive: -24.7%	–
CC(C)(C)c1ccc(OCC(=O)Nc2c(C(=O)c3ccc(F)cc3)oc3ccccc23)cc1	–	inconclusive [inhibitor, single point]
c1ccc(-c2nc(NCCCn3ccnc3)c3ccccc3n2)cc1	inactive: 0.987%	–
Cc1ccc(-c2cc(C(=O)N(C)Cc3cnn(C)c3C)c3cc(Br)ccc3n2)cc1	–	active: 7.31 µM
CC(Cc1n[nH]c(=S)n1N)c1ccccc1 (stereo not given)	inactive: -4.23%	–
c1ccc2c(c1)CCCN2c1nc2ccccc2n2cnnc12	–	inconclusive [inhibitor, single point]
CCCCCCCCCOC(=O)C[n+]1csc(CCO)c1C	–	inconclusive [inhibitor, partial curve]

SMILES	activity change, negative = growth inhibition	Potency
CCn1c(CNC(=O)c2ccccc2F)cc2cc(C)ccc21	inactive: -0.183%	–
CCSc1nnc(NC(=O)CN(C)S(=O)(=O)c2ccc(F)cc2)s1	inactive: 3.59%	–
COc1ccc2c(C)c(CCC(=O)NC3CC3)c(=O)oc2c1C	–	inconclusive [inhibitor, single point]
Cn1c(=O)c2c(nc(CN3CCN(c4cccc(Cl)c4)CC3)n2CCc2ccccc2)n(C)c1=O	–	active: 13 µM
COc1ccccc1NC(=O)COC(=O)CCn1c(C)csc1=O	inactive: 15.4%	–
COc1cc(OC)cc(C(=O)N2CCN(Cc3ccc4c(c3)OCO4)CC2)c1	inactive: -12.1%	–
O=C(NCC1CC1)c1ccc(Oc2cc(Cl)cc(Cl)c2)o1	inconclusive: -35.4% [inhibitor]	–
CCOC(=O)c1ccccc1NC(=O)CSc1ncc2c(n1)-c1ccccc1N(CC)S2(=O)=O	–	inconclusive [inhibitor, single point]
O=C(NN=C1CCCCCCC1)c1ccccn1	inactive: -0.0149%	–
COc1ccc(S(=O)(=O)Nc2ccccc2N2CCOCC2)cc1[N+](=O)[O-]	inactive: -0.706%	–
O=C(NCC(=O)N(Cc1ccccc1)C(C(=O)NC1CCCCC1)c1ccco1)c1ccco1 (stereo not given)	–	inconclusive [inhibitor, partial curve]
CCOc1ccccc1CNC(=O)C1CCN(C(=O)N2CC(C)Oc3ccc(C)cc32)CC1 (stereo not given)	–	active: 20.6 µM
OCCNCCCOc1ccc(Cl)cc1Br	–	inconclusive [inhibitor, single point]
COc1ccc(S(=O)(=O)N2CCCCCC2)cc1C(=O)N(C)Cc1ccc(Cl)cc1Cl	–	inconclusive [inhibitor, single point]
O=C1c2ccccc2S(=O)(=O)c2cc(N3CCN(C(=O)c4ccccc4)CC3)ccc21	–	active: 14.6 µM
CCn1c(=S)[nH]c2cc(C(=O)OC)ccc2c1=O	–	inconclusive [inhibitor, partial curve]
O=C1c2cccc3cc(Br)cc(c23)C(=O)N1Nc1ccccc1	–	inconclusive [inhibitor, single point]
CC(=O)c1ccc(Nc2ccc(-c3ccccc3C)nn2)cc1	–	inconclusive [inhibitor, partial curve, poor fit]
CCCOc1ccc(C(=O)NNC(=S)NC(=O)CC)cc1	–	active: 4.61 µM
Cc1cc(OCC(=O)NCCCN2CCOCC2)c2c(C)c(C)c(=O)oc2c1	inactive: -11.3%	–
O=C1COc2ccc(S(=O)(=O)CCC(=O)NC3CCCCC3)cc2N1	inactive: -3.14%	–
Cc1nn(C)c2c1c(-c1ccccc1)cc(=O)n2CC(=O)NC(C)(C)C	–	inconclusive [inhibitor, single point]
CCOC(=O)C1=CCC(c2cccc(C)c2)N(S(=O)(=O)c2ccc(C)cc2)C1 (stereo not given)	–	active: 18.4 µM
Cc1cccc([C@H]2[C@@H]3C=CC[C@@H](C)[C@@H]3C(=O)N2Cc2ccccc2)c1	–	inconclusive [inhibitor, single point]

SMILES	activity change, negative = growth inhibition	Potency
CCCc1nc(SCC(=O)Nc2nnc(CC)s2)c2c(C)c(C)sc2n1	–	inconclusive [inhibitor, single point]
C[C@@H]1CN([C@@H](C)CO)S(=O)(=O)c2ccc(Br)cc2O[C@H]1CN(C)C(=O)Nc1ccc2c(c1)OCO2	–	inconclusive [inhibitor, single point]
O=C(Cn1c2ccccc2c2nc3n(c(=O)c21)CCS3)Nc1ccccc1C(F)(F)F	inactive: 10.2%	–
COc1ccc(CNC(=S)Nc2ccc(F)c(Cl)c2)cc1	–	inconclusive [inhibitor, single point]
CCO[C@H]1OC(C(=O)NCc2nc3ccccc3[nH]2)=C[C@@H](C2CC2)[C@@H]1CCCO	–	active: 0.82 µM
COc1ccc(OCC(=O)N2CCc3c([nH]c4ccccc34)C2c2ccccn2)cc1 (stereo not given)	–	inconclusive [inhibitor, single point]
Cc1c(C(=O)N/N=C/c2c(O)ccc3ccccc23)nnn1-c1nonc1N	–	active: 5.8 µM
O=C(c1ccc(NS(=O)(=O)c2ccc3c(c2)OCCO3)cc1)N1CCCCC1	–	inconclusive [inhibitor, single point]
COc1cc2nc(SCc3ccc(F)cc3)n3nc(CCn4c(C)nc5ccccc54)nc3c2cc1OC	–	inconclusive [inhibitor, single point]
COc1ccc(CC(=O)NNC(=S)NC(=O)c2cc(OC)c(OC)c(OC)c2)cc1	–	active: 9.2 µM
c1ccc(CCNc2ccnc3cc4ccccc4cc23)cc1	–	active: 5.8 µM
COc1ccc(C2c3ccc4ccccc4c3Oc3ncn(CCN(C)C)c(=N)c32)cc1 (stereo not given)	–	inconclusive [inhibitor, single point]
CC(C)[C@@H](C)/C=C/[C@@H](C)[C@H]1CC[C@H]2/C(=C/C=C3\C[C@@H](O)CC[C@@H]3C)CCC[C@]12C	–	inconclusive [inhibitor, single point]
CC(C)(C)NC(=O)C(c1ccc(F)cc1)N(Cc1cccs1)C(=O)c1ccc(CN2CCOCC2)o1 (stereo not given)	inactive: -6.63%	–
CCOc1ccc(S(=O)(=O)N(CC(=O)NCCSCc2ccccc2)c2ccccc2)cc1	inactive: -24.3%	–
CC(C)C[C@H]1CNC(=O)C(=O)N1C[C@H]1CCCN1C[C@H](CC(C)C)N1C[C@H](CC(C)C)N(CCc2ccccc2)C(=O)C1=O	–	inconclusive [inhibitor, single point]
C[C@@H]1CN([C@H](C)CO)C(=O)c2cc(NC(=O)Nc3ccc(C(F)(F)F)cc3)ccc2O[C@H]1CN(C)S(=O)(=O)c1ccc(Cl)cc1	–	active: 5.17 µM
CCCCCNCC(=O)Nc1cccc(C(=O)Nc2cccc(C(F)(F)F)c2)c1	–	inconclusive [inhibitor, single point]
CCC(C)NC(=S)N(CCc1ccccc1)Cc1cc2cc(OC)c(OC)cc2[nH]c1=O (stereo not given)	–	inconclusive [inhibitor, single point]
Cc1cc2nc(C3CCCCC3)c(CC(C)(C)C)n2c(C)c1Br	–	inconclusive [inhibitor, single point]
CCn1cc(C(=O)O)c(=O)c2cc(F)c(N3CCN(S(=O)(=O)c4ccc(NC(=O)OC)cc4)CC3)cc21	–	active: 18.4 µM
Cc1nnc(SCC(=O)Nc2sccc2C#N)n1Cc1ccccc1	inactive: -0.978%	–

From PubChem BioAssay AID686979 (National Center for Advancing Translational Sciences (NCATS), 2013)
